From paper PMC10519607
These are yes or no findings as the source states them, for the method shown. Binding seen in cells or lysates may run through a third protein. Some entries that bind do so weakly or less than the wild type.

Amino acid sequences for entries named in this document (tags omitted).
UniProt P03101: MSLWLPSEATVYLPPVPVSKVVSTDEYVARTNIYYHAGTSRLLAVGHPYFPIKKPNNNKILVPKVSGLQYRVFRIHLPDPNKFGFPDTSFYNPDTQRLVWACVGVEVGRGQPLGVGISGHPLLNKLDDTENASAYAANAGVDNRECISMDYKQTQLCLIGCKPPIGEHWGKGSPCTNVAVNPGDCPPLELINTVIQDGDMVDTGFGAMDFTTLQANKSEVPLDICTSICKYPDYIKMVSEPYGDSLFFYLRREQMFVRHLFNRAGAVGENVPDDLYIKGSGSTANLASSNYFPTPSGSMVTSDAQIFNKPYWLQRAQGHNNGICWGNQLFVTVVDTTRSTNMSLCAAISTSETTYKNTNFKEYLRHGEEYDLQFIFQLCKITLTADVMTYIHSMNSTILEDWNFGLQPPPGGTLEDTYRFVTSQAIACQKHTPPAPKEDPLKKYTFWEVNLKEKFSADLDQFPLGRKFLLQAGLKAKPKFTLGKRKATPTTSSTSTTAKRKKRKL
UniProt P03107: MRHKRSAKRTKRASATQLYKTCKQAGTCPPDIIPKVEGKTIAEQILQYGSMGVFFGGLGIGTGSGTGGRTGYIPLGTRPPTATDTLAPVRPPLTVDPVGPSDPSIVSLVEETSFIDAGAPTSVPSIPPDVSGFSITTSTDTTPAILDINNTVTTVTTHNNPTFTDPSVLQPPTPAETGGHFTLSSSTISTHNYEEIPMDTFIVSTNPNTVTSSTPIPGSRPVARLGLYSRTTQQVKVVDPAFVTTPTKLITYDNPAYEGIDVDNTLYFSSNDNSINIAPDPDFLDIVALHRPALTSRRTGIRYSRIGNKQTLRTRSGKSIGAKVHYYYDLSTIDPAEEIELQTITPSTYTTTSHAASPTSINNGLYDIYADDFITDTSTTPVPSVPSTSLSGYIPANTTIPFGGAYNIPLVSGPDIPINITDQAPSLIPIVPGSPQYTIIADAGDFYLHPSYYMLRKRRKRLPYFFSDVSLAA

How the values were obtained:
[1] = molecular target: T1, Rab9a (human (endogenous in HeLa S3)) (UniProt P51151); test: condition: only PsV with the 3R mutant L2 (RKRRKR replaced by RRR), which is impaired for protrusion into the cytoplasm; proximity ligation; As a1, with HPV16 PsV containing HA-tagged 3R mutant L2 (RKRRKR replaced by RRR) compared with HA-tagged wild-type L2; 8 hpi, antibodies to L1 and Rab9a
T1 sequence: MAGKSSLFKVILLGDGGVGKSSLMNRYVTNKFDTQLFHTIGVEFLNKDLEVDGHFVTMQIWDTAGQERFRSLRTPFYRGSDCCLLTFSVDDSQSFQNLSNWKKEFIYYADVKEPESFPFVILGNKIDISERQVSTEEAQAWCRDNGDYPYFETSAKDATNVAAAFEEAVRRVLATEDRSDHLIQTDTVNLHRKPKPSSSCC

[2] = molecular target: T1, Rab9a (human (endogenous in HeLa S3)); test: proximity ligation; HeLa S3 cells, mock-infected or infected with HPV16 PsV (MOI ~200), fixed at 3.5-16 hpi, Duolink PLA with a mouse and a rabbit antibody. Cells were in part transfected with siNC, siRab9a, siRab7 or siDENND2D, or stably expressing DN Rab7. DMSO controls. For L1-Rab9a also BafA or XXI (markedly reduced), for L1-VPS35 also XXI (greatly reduced).
[3] = molecular target: T1, Rab9a (human (endogenous in HeLa S3)); test: condition: only with 100 nM Bafilomycin A1 (endosomal acidification inhibited); proximity ligation; As a1, with 100 nM Bafilomycin A1 added to the medium 30 min before infection (3.5 hpi for FLAG(L2)-Rab9a; 8 hpi for L1-VPS35)
[4] = molecular target: T1, Rab9a (human (endogenous in HeLa S3)); test: co-IP; As a5, with 100 nM Bafilomycin A1 added 30 min before infection
[5] = molecular target: T1, Rab9a (human (endogenous in HeLa S3)); test: condition: only with 2 μM γ-secretase inhibitor XXI; proximity ligation; As a1, with 2 μM γ-secretase inhibitor XXI added to the medium 30 min before infection; 3.5 hpi, antibodies to FLAG (L2) and Rab9a
[6] = molecular target: T1, Rab9a (human (endogenous in HeLa S3)); test: co-IP; HeLa S3 infected with HPV16 PsV L2-3XFLAG (MOI ~100). Cross-linked in cells with 1.5 mM DSP for 30 min at 6.5 hpi. Lysed in 20 mM HEPES pH 7.4, 50 mM NaCl, 5 mM MgCl2, 1% DDM, 0.05% Triton X-100. IP with anti-Rab9a and protein G magnetic beads, blot with anti-FLAG.

## HPV16 major capsid protein L1 (from UniProt P03101 1-505)
[1]
  binding: no binding
[2]
  binding: binds

## HPV16 minor capsid protein L2 with C-terminal 3xFLAG tag (from UniProt P03107 1-473)
[3]
  binding: no binding
[4]
  binding: no binding (condition: with 100 nM Bafilomycin A1)
[5]
  binding: no binding
[2]
  binding: binds
[6]
  binding: binds
